Here are results for 44 molecules from ChEMBL document CHEMBL4888484, “Replenishing the malaria drug discovery pipeline: Screening and hit evaluation of the MMV Hit Generation Library 1 (HGL1) against asexual blood stage Plasmodium falciparum ,using a nano luciferase reporter read-out” (2022).

About 540 (0.36%) of roughly 150,000 compounds showed an effect of 50% or more. The list shows a part of the results.

This test relates to Plasmodium falciparum. In words: Primary screen in NF54 nanoGlo assay, in single point, at 2uM, 72h; a lower Z score goes with more inhibition. Particulars: timepoint 72 hour. The format is functional, Erythrocyte.
The % Inhibition is the relative decrease from the control value, in per cent. Regarding `NC1(Cc2cc(-c3cccc(O)c3)on2)COC1`, the “% Inhibition” value was 19% and the Z score is listed as -2.2.
Regarding `CCCNc1nc(N2CCOCC2)nc2c1cnn2C`, the “% Inhibition” value came out at 6% and the Z score is listed as -1.06.
Turning to `Cc1nnnn1Cc1ccc(C(=O)N2CCc3[nH]c(-c4cn[nH]c4)nc3C2)cc1`, the “% Inhibition” value amounted to 10% and the Z score is reported as -1.82.
In the case of `Cc1ccc(C(=O)Nc2sc(N)nc2-c2cccs2)cc1`, the “% Inhibition” value is -11% and the Z score is recorded as 1.66.
The corresponding values for `CCc1noc(COc2ccc(C)cc2C(=O)Nc2ccncc2)n1` are 3% and -0.37.
Take `CCc1nc(C[C@H]2CN(c3nc(C)nc4c3cnn4C)CCO2)no1`: the “% Inhibition” value turned out to be 2% and the Z score was -0.32.
In the case of `CC(C)S(=O)(=O)CCNC(=O)c1coc(C2CCOCC2)n1`, the “% Inhibition” value is -6% and the Z score turned out to be 1.07.
As to `CC(C)C[C@@H](CO)NC(=O)Nc1ccc(C(C)(C)C#N)cc1`, the “% Inhibition” value is on record as 0% and the Z score was determined as 0.
`CCC(CC)C(=O)N1CC[C@@H](CC(=O)O)[C@@H](CC2=NCCc3ccc(C)cc32)C1`: the “% Inhibition” value is reported as -3% and the Z score was determined as 0.34.
The corresponding values for `Nc1c(NC(=O)N2CCOCC2)c(-c2ccccc2)nn1-c1ccc(F)cc1` are 14% and -1.6.
The corresponding values for `C=CC[C@]1(CO)CCCN(c2nc(N)nc3c2CCC3)C1` are -5% and 0.64.
As to `CC(C)(C)C[C@H](NC(=O)Nc1cccnn1)C(F)(F)F`, the “% Inhibition” value was -1% and the Z score came out at 0.1.
With `CC[C@H]1[C@H](NC(=O)c2c[nH]c(=O)c(Cl)c2)[C@H]2CCO[C@H]21`, the “% Inhibition” value was -7% and the Z score was found to be 1.
With `O=C(CCCc1nc(C2CC2)no1)N[C@H]1CCN(CC2CCCC2)C1`, the “% Inhibition” value came to 8% and the Z score was -1.57.
For `Cc1ccnc(NCCCc2nc(C)c(C)s2)n1`, the “% Inhibition” value was -10% and the Z score came out at 1.66.
The corresponding values for `COC(=O)c1nc(NC(=O)CCc2c(C)n[nH]c2C)sc1CC(C)C` are -5% and 0.67.
With `CC(=O)N(CCCN1CCOCC1)[C@H]1CCN(C(=O)COc2cccc(C)c2)C1`, the “% Inhibition” value amounted to 4% and the Z score was -0.43.
As for `Cc1cnc2c(c1NC1CCCC1)c(=O)n(C)c(=O)n2C`, the “% Inhibition” value is -2% and the Z score came out at 0.26.
The like results for `Cc1cc(C)cc(CN2CCN(c3ncnc4onc(C)c34)CC2=O)c1` were, in that order, -9% and 1.37.
Regarding `COC(=O)[C@H](CC1CCCCC1)NC(=O)c1cccc(F)c1F`, the “% Inhibition” value is given as -8% and the Z score stood at 1.28.
Take `Cc1cc(C(=O)N2CC(OCc3cccc(F)c3)C2)c(C)o1`: the “% Inhibition” value is -4% and the Z score came to 0.81.
Regarding `N#Cc1nccnc1O[C@H]1CC[C@H](NC(=O)c2ccoc2)CC1`, the “% Inhibition” value is reported as -5% and the Z score amounted to 0.57.
`COc1ccc(-c2cn3cc(-c4ccccc4)c4c3n2CCCC4)cc1`: the “% Inhibition” value was -8% and the Z score is listed as 1.46.
On to `N#CCCn1ncc2c(N3CCC4CCCCC4C3)ncnc21` (stereo not drawn), for which the “% Inhibition” value was -9% and the Z score is on record as 1.89.
The like results for `CCOC(=O)C1CCC2(CC1)NC(=O)[C@@H]1CCCCN12` (stereo partly drawn) were, in that order, -3% and 0.54.
The like results for `CCCN(Cc1sc(C)nc1C(F)(F)F)C[C@H]1CCCCO1` were, in that order, -7% and 0.79.
The corresponding values for `Cn1ncc(Cl)c1S(=O)(=O)N1CCN(C2CC2)CC1` are -13% and 1.13.
For `O=C(Nc1ccc(N2CCCC2=O)cc1)NC1CCCCCCC1`, the “% Inhibition” value was 0% and the Z score worked out at 0.01.
Consider `CN(CCCNC(=O)CNS(C)(=O)=O)c1ccccc1F`, for which the “% Inhibition” value is reported as -1% and the Z score turned out to be 0.13.
On to `Brc1ccc(Oc2ncc(CN3CCOCC3)s2)cc1`, for which the “% Inhibition” value was 31% and the Z score is on record as -0.7.
For the molecule `OC[C@H](c1ccccc1)n1ccnc1-c1cc2n(n1)CCCNC2`, the “% Inhibition” value is recorded as -6% and the Z score was determined as 0.84.
The like results for `COc1ccc(-c2cc(N)n(-c3nc(-c4ccc(C)cc4)cs3)n2)cc1` were, in that order, 11% and -1.65.
The corresponding values for `CC(C)(C)CC(=O)Nc1ccc2c(c1)cc(C(=O)Nc1ccc(C(F)(F)F)cc1)n2Cc1ccc(C(C)(C)C)cc1` are 1% and -0.11.
On to `CC(C)(C)c1nccc(NC(=O)c2ccoc2Br)n1`, for which the “% Inhibition” value is on record as -4% and the Z score was found to be 0.54.
The like results for `c1ccc2cc(Oc3ncnc4sccc34)ccc2c1` were, in that order, -2% and 0.32.
For `C[C@]1(O)CCN(C(=O)c2cncc(Cl)c2)C[C@H]1Cc1ccccc1`, the “% Inhibition” value worked out at 9% and the Z score is -1.18.
As to `O=C(Cc1cccnc1)N1CCC(N2C[C@H](Oc3ccccc3)[C@@H]2c2ccncc2)CC1`, the “% Inhibition” value is -11% and the Z score is listed as 1.43.
In the case of `Cc1nnsc1C(=O)NCC(C)(C)c1ccsc1`, the “% Inhibition” value is listed as -5% and the Z score is 0.98.
For the molecule `CCCN(Cc1ccc(OC)c(OC)c1)C[C@H](O)COC(C)C`, the “% Inhibition” value was -5% and the Z score amounted to 0.66.
The corresponding values for `CNc1cc(-c2ncc(F)c(N3CCOCC3)n2)c2cc[nH]c2n1` are -7% and 1.43.
The like results for `CN(C)[C@@H](CNC(=O)c1ccc(F)c(Cl)c1F)C1CC1` were, in that order, -11% and 1.55.
With `CCCS(=O)(=O)CCn1ccnc1`, the “% Inhibition” value came out at 4% and the Z score is on record as -0.51.
The like results for `CC(C)(C)N(CC(N)=O)C(=O)c1scnc1C1CC1` were, in that order, 2% and -0.27.
For the molecule `CCC[C@@](C)(CCCNC(=O)c1cnc(OC(C)C)c(Cl)c1)C1OCCO1`, the “% Inhibition” value is 1% and the Z score was -0.11.
